# According to the RNAGym collection of RNA variant scans (doi:10.7554/elife.90254):
# The source gives no read counts; variants with many changes may rest on few reads.
# B1: LINE1-mini (parent)
# chain: GGCAGAGCUCAACACAGCGUGGCAAAGUGGCUGUGGCUAGACUGCC
# Variants of: B1
# Assay: self-cleavage, relative activity (ratio to wild type); higher = more cleavage; in vitro, sequencing; the parent is a self-cleaving ribozyme
row,Variant,self-cleavage
1,GGCAGAGCUCAACAUAGCGUGGCAAAGUUGCAGUGGCUAGACUGCC [C15U G29U U32A],0.06
2,GGCAGAGCUCAACACCGCGUGGAAAAGUGGCUGUUGCUAGACUGCC [A16C C23A G35U],0.06
3,GGCAGAGCUCAACAUAGCUUGGCAAGUUGGCUGUGGGUAGACUGCC [C15U G19U A26G G27U C37G],0.02
4,GGCAGAGCUCAACAUAGCGUGGCAAUGUGGUUGUGGCAAGACUGCC [C15U A26U C31U U38A],0.02
5,GGCAGAGCUCAACAUAGCGUAGCAAAGUCGCUUUGGCUAGACUGCA [C15U G21A G29C G33U C46A],0.46
6,GGCAGAGCUCAACAUAGCGUGGCAUAGUGACUGUGGCUAGGCUGCC [C15U A25U G30A A41G],0.05
7,GGCAGAGCUCAACAUAGCGUGGGAAAGUGGCUGUGGCUAGAGUGCC [C15U C23G C42G],0.02
8,GGCAGAGCUCAACAUAGCGUGGCAAAGUGGCUGUGGAUAGACUGCA [C15U C37A C46A],0.06
9,GGCAGAGCUCAACAUAGCGUGGCAAAGUGGCUGAGACUAGACUGCC [C15U U34A G36A],0.04
10,GGCAGAGCUCAACAUAGCGUCGCAGAGUGGUUGUGCCUAGACUGCC [C15U G21C A25G C31U G36C],0.01
11,GGCAGAGCUCAACAUAUUGUGGCAAAGUGGCUGUGGCUAGACUGCC [C15U G17U C18U],0.05
12,GGCAGAGCUCAACAGAGCGUGGCAAAGUGGCCGUGGCUAGACAGCC [C15G U32C U43A],0
13,GGCAGAGCUCAACAUAGCGUGGCCAAGUUGCUGUGGCUAGACUGCC [C15U A24C G29U],0.56
14,GGCAGAGCUCAACAUAGAGUGCCAAGGUGGCUGUGGCUAGACUGCC [C15U C18A G22C A26G],0.05
15,GGCAGAGCUCAACAUAGCGUGGCAAAGUGACUGUUGCUAGACUGCC [C15U G30A G35U],0.04
16,GGCAGAGCUCAACAUAGCGUGGCAAAGUGGCUUUGGCUUGUCUGCC [C15U G33U A39U A41U],0.13
17,GGCAGAGCUCAACAUAGCAUGGCAAGGUGGCUGUGGCUAGACUGCC [C15U G19A A26G],1.54
18,GGCAGAGCUCAACACCGCGUGGCAAGGUGGCUGUGGAUGGACUGCC [A16C A26G C37A A39G],0.04
19,GGCAGAGCUCAACACCGCGUGGCACAGUGGCUGUGACUAGACUGCC [A16C A25C G36A],0.1

row,Variant,self-cleavage
1,GGCAGAGCUCAACAGAGCGUGGCAAAGUGGCCGUGGCUAGACUGGC [C15G U32C C45G],0
2,GGCAGAGCUCAACAUAGCGUGGCAAAGUGGCUGUGGCUAAACGGCC [C15U G40A U43G],0.09
3,GGCAGAGCUCAACACCGCGUGGCAACGUGGCUGUGGGUAGACUGCC [A16C A26C C37G],0.02
4,GGCAGAGCUCAACAUAGCGUGGCAAACUGGUUGUGGCUAGACUGCC [C15U G27C C31U],0.02
5,GGCAGAGCUCAACACCGUGUAGCAAAGUGCCUGUGGCUAGACUGCC [A16C C18U G21A G30C],0.02
6,GGCAGAGCUCAACAUAGCGUGGAAAAGUGGCUUUGGCUAGACUGCC [C15U C23A G33U],0.38
7,GGCAGAGCUCAACAUAGCGUGGCAAAGUGGCUGUGGCUAUUCGGCC [C15U G40U A41U U43G],0.12
8,GGCAGAGCUCAACAUAGCGUAGCAAAGUGGCUGUGGCUAAACUGCC [C15U G21A G40A],0.07
9,GGCAGAGCUCAACAUACCGUGGCAAAGUGGCAGUGGCUAGACUGCC [C15U G17C U32A],0.12
10,GGCAGAGCUCAACAUAGCAUGGCAAAGUGGAUGUGGCUAGACUGCC [C15U G19A C31A],0.05
11,GGCAGAGCUCAACAUACCGUGGCUAAGUGGGUGUGGCUAAACUUCC [C15U G17C A24U C31G G40A G44U],0.01
12,GGCAGAGCUCAACAUAGCGUGGCAAAGUGGCUAGGGCUAGACUGCC [C15U G33A U34G],0.31
13,GGCAGAGCUCAACAUAGGGUGGCAAAGUGGCUGUGACUAGACUGCC [C15U C18G G36A],0.02
14,GGCAGAGCUCAACAUAGCGUGACAUAGUGGCUCUCGCUAGACUGCC [C15U G22A A25U G33C G35C],0.01
15,GGCAGAGCUCAACAUAUCGUGGCAAACCGGCUGUGGCUAGACUGCC [C15U G17U G27C U28C],0.16
16,GGCAGAGCUCAACAUAGCGUGGCUAAGUGGCUAUGACUAGACUGCC [C15U A24U G33A G36A],0.03
17,GGCAGAGCUCAACAUUGCGUGACAAACUGCCUGUUGCUAGACUGCC [C15U A16U G22A G27C G30C G35U],0.01
18,GGCAGAGCUCAACAUAGCGUUGCAAAGUGACUGUGGCUAGACUGCC [C15U G21U G30A],0.23
19,GGCAGAGCUCAACAUAGCGUAGCAAAGUGGCUGUGGGUAGACUGCC [C15U G21A C37G],0.03

row,Variant,self-cleavage
1,GGCAGAGCUCAACAUAGCAUGGCGAAGUGGCUGUGGCUAGACUGCC [C15U G19A A24G],0.4
2,GGCAGAGCUCAACAUAGCGCGGCAAAGUGGCUGUGGAUAGACUGCC [C15U U20C C37A],0.32
3,GGCAGAGCUCAACAUAGCGUGGCAAAGUUGCUGUGGAUAGACUGCC [C15U G29U C37A],0.06
4,GGCAGAGCUCAACAUAGCGUGGAGAAGUGGCUGUGGCUCGACUGCC [C15U C23A A24G A39C],0.18
5,GGCAGAGCUCAACAUAGAGUGGCAAGGUGGCUGUGGCUAGACUGGC [C15U C18A A26G C45G],0
6,GGCAGAGCUCAACAUAGCGUAUAAAAGUGGCUGUGGCUAGACUACC [C15U G21A G22U C23A G44A],0.17
7,GGCAGAGCUCAACAUAGCGUGGCAAAGUAGCUGUAGGUAGACUGUC [C15U G29A G35A C37G C45U],0.04
8,GGCAGAGCUCAACAUAGCGGGGCAAAGUGGCUGUGGCUAGACUGCU [C15U U20G C46U],0.13
9,GGCAGAGCUCAACAUAGCGUGUCAAAGUGGCUGUGGCUAAGCUGCC [C15U G22U G40A A41G],0.2
10,GGCAGAGCUCAACAUAGCGUGGCUAAGUGGCUGUGGCGAGACUGCC [C15U A24U U38G],0.04
11,GGCAGAGCUCAACAUAACGUGGUAACGUGGCUGUGGCUAGACUGCC [C15U G17A C23U A26C],0.03
12,GGCAGAGCUCAACAUAACGUGGCAAAGUCGCUGUGGCUAGACUGCC [C15U G17A G29C],0.03
13,GGCAGAGCUCAACAUAGCGUGGCAAAGUGCCUGUGGCUAGACUCCC [C15U G30C G44C],0.03
14,GGCAGAGCUCAACAUAGCGUGGCAAAGUGGCUGGGUCUAGACUGCC [C15U U34G G36U],0.04
15,GGCAGAGCUCAACAUAGCGUGGCAAAGUGGCAGUAGCUUGACUGCC [C15U U32A G35A A39U],0.06
16,GGCAGAGCUCAACAUAGCGUGGCAAAGUGGCUGUGGCCAGACUGGC [C15U U38C C45G],0.61
17,GGCAGAGCUCAACACCGGGUGGCGAAGAGGCUGAGGCUAGACUGCC [A16C C18G A24G U28A U34A],0.02
18,GGCAGAGCUCAACAUAGCCUAGCAAAGUGGCUGUGGCUAAACUGCC [C15U G19C G21A G40A],0.04
